Some of the results follow.
Assays:
[1] = system: HSkMC (human skeletal muscle cells); assay: cytotoxicity call (relative viability < 0.9); conditions: 10 µM
[2] = system: HepG2; assay: cytotoxicity call (relative viability < 0.9); conditions: 10 µM
[3] = system: S. aureus RN4220; assay: growth inhibition call (relative growth <= 0.2); conditions: 50 µM

Row | SMILES | cytotoxicity call [1] | cytotoxicity call [2] | growth inhibition call [3]
1 | Cc1ccc(-c2ccc3c(c2)O[C@H](CN(C)Cc2cncnc2)[C@H](C)CN([C@@H](C)CO)S3(=O)=O)cc1 | inactive | inactive | inactive
2 | C[C@H]1CN([C@@H](C)CO)C(=O)c2cc(NC(=O)NC3CCCCC3)ccc2O[C@H]1CN(C)Cc1ccc(Cl)c(Cl)c1 | inactive | inactive | inactive
3 | O=C(C[C@@H]1CC[C@H](NS(=O)(=O)c2ccc(F)cc2)[C@@H](CO)O1)NCc1ccc(Cl)c(Cl)c1 | inactive | inactive | inactive
4 | C[C@@H]1CCCCO[C@H](CN(C)C(=O)Cc2ccccc2)[C@@H](C)CN([C@@H](C)CO)C(=O)c2cc(NC(=O)Nc3ccc(C(F)(F)F)cc3)ccc2O1 | inactive | inactive | inactive
5 | O=C(Nc1cc(C(=O)Nc2ccc(S(=O)(=O)O)cc2S(=O)(=O)O)cc(C(=O)Nc2ccc(S(=O)(=O)O)cc2S(=O)(=O)O)c1)Nc1cc(C(=O)Nc2ccc(S(=O)(=O)O)cc2S(=O)(=O)O)cc(C(=O)Nc2ccc(S(=O)(=O)O)cc2S(=O)(=O)O)c1 | inactive | inactive | inactive
6 | COc1ccc(CN(C)C[C@H]2OCCCC[C@H](C)Oc3ccc(NC(=O)Cc4ccccc4)cc3C(=O)N([C@H](C)CO)C[C@@H]2C)cc1 | inactive | inactive | inactive
7 | C[C@H](CO)N1C[C@H](C)[C@@H](CN(C)C(=O)Nc2ccc(F)cc2)OCCCC[C@H](C)Oc2ccc(NS(=O)(=O)c3ccc(F)cc3)cc2C1=O | inactive | inactive | inactive
8 | CNC[C@H]1Oc2ccc(NC(=O)Cn3cnnn3)cc2C(=O)N([C@@H](C)CO)C[C@H]1C | inactive | inactive | inactive
9 | COc1cccc(S(=O)(=O)N[C@@H]2C=C[C@H](CC(=O)NC3CCC3)O[C@@H]2CO)c1 | inactive | inactive | inactive
10 | COc1ccc(N2CCN(c3nc(NCCO)nc(N4CCOCC4)n3)CC2)cc1 | inactive | inactive | inactive
11 | O=C1NC(=O)[C@@]2(CC[C@H](C(=O)O)C2)N1 | inactive | inactive | inactive
12 | CN1C(=O)c2cc(NC(=O)c3cccs3)ccc2OC[C@H]2O[C@H](CC(=O)NCC(F)(F)F)CC[C@@H]21 | inactive | inactive | inactive
13 | CCS(=O)(=O)NCC[C@H]1CC[C@@H](NS(=O)(=O)c2ccccc2C)[C@H](CO)O1 | inactive | inactive | inactive
14 | Cc1ccc(S(=O)(=O)N(C)C[C@@H]2OCCCC[C@@H](C)Oc3ccc(NC(=O)Nc4c(C)noc4C)cc3C(=O)N([C@@H](C)CO)C[C@H]2C)cc1 | inactive | inactive | inactive
15 | C[C@@H]1CN([C@@H](C)CO)S(=O)(=O)c2ccc(C#CCN(C)C)cc2O[C@H]1CN(C)C(=O)C1CCCCC1 | inactive | inactive | inactive
16 | Cc1noc(C)c1NC(=O)Nc1ccc2c(c1)C(=O)N([C@@H](C)CO)C[C@H](C)[C@@H](CN(C)C(=O)C1CCCCC1)OCCCC[C@H](C)O2 | inactive | inactive | inactive
17 | COc1ccc(S(=O)(=O)Nc2cccc3c2O[C@@H](CN(C)S(=O)(=O)c2ccc(OC)cc2)[C@H](C)CN([C@@H](C)CO)C3=O)cc1 | inactive | inactive | inactive
18 | O=C(C[C@@H]1C=C[C@H](NC(=O)c2ccc(F)cc2)[C@@H](CO)O1)NCc1ccncn1 | inactive | inactive | inactive
19 | Cc1noc(C)c1NC(=O)Nc1ccc2c(c1)C(=O)N([C@H](C)CO)C[C@H](C)[C@H](CN(C)S(=O)(=O)c1cn(C)cn1)O2 | inactive | inactive | inactive
20 | C[C@@H]1CCCCO[C@H](CN(C)C(=O)Cc2ccccc2)[C@H](C)CN([C@@H](C)CO)C(=O)c2cc(NC(=O)Nc3cccc4ccccc34)ccc2O1 | inactive | inactive | inactive
21 | Cc1noc(C)c1NC(=O)N(C)C[C@@H]1Oc2ccc(NS(=O)(=O)c3cn(C)cn3)cc2C(=O)N([C@H](C)CO)C[C@H]1C | inactive | inactive | inactive
22 | C[C@H](CO)N1C[C@H](C)[C@H](CN(C)S(=O)(=O)c2cn(C)cn2)Oc2ccc(NC(=O)Cn3cnnn3)cc2C1=O | inactive | inactive | inactive
23 | COc1ccccc1-c1ccc2c(c1)O[C@@H](CN(C)C(=O)c1ccncc1)[C@@H](C)CN([C@H](C)CO)S2(=O)=O | inactive | inactive | inactive
24 | CC(C)(C)c1ccc(C(=O)CCCN2CCC(OC(c3ccccc3)c3ccccc3)CC2)cc1 | active | active | inactive
25 | Cc1noc(C)c1S(=O)(=O)Nc1ccc2c(c1)C(=O)N([C@@H](C)CO)C[C@H](C)[C@H](CN(C)CC1CCCCC1)OCCCC[C@@H](C)O2 | inactive | inactive | inactive
26 | C[C@@H]1CN([C@H](C)CO)C(=O)c2cc(NS(C)(=O)=O)ccc2O[C@@H](C)CCCCO[C@H]1CN(C)Cc1ccc(C(F)(F)F)cc1 | inactive | inactive | inactive

Source: the antibiotic and cytotoxicity screens of Wong et al. (2023)
